The supplement of paper PMC10681739
Whole data set: some 4,000 sequences, median “arbitrary fluorescence units” near 830, cut for the highest 2% near 6,500. This part holds few or none of the hits.

biological target: RUNX1 (UniProt Q01196); experiment: RUNX1 binding intensity (PBM fluorescence), RUNX1 alone (arbitrary fluorescence units); higher = stronger binding; details: RUNX1 concentration 2 nM; ETS1 concentration 0 nM
Experimental: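 gcPBM on 36-bp genomic-derived probes (partner site mutated) containing one RUNX1 site and no ETS1 site. Recombinant human RUNX1 (2 nM) was incubated alone or with ETS1 (25 nM) and detected by anti-RUNX1 antibody fluorescence. Values are medians over 4 replicate spots (not normalised). The probes sit in constant array flanks that are not printed.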
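Further: Full-length recombinant human RUNX1 bound to double-stranded DNA microarray spots, detected with an Alexa488-labelled secondary antibody after the anti-RUNX1 primary, read as scanned spot fluorescence.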

Sequence of UniProt Q01196 (Q01196 whole entry): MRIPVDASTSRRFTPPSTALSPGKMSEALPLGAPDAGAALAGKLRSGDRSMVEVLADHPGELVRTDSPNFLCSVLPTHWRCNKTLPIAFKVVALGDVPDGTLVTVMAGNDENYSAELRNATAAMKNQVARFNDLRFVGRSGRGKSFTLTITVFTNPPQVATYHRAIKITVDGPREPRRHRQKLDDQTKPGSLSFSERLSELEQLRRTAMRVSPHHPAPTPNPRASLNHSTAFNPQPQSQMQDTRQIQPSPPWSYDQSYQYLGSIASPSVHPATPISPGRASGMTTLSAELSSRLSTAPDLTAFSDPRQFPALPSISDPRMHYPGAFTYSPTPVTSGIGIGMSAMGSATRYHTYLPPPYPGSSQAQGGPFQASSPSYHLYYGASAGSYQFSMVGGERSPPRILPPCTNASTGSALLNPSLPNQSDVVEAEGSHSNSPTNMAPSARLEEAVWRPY

Sequence	RUNX1 binding intensity
GGCTTGCCAAGAGGCAATTTGAAGCCACAATAACAT	779
CAGCCTTGCCGTAAGGCAGAGTTTGTGGTCAGACCG	1110
GAAGAGCAAAACCAAGTGAAGGAGACTTCACTAAGT	730
TAGGACAGCGGTTTTTCAGTCCGGAGATTCCAGCCA	787
CTACCGGGAATGCAGCACCACGTAAAATGCGGTCGG	808
CTCGTGGCCACATCTGGCGGTGCCCCGGCATCAGGT	756
TCCGGCCCCGCAGCGCTGTGAACTCCATCTCCCAGA	878
TCCCCCTTCCCACAGCTCCTCCTCCGCGTCCTCCCC	1270
TGGTGCACCACACACACGAGATAAAACAGAAAGCCT	872
CCAGGCCTTCAGGACCACAGCGTCCGACATGCCCCG	737
GGCTGCAGCAAGTGGGAAGGTGTGGCTTTGAGTCTC	708
GTCGGTTTTTCTGTGGCTAGCGGATTTTTGGCACCA	1200
GGTGCCGCAGCTCCAGCCTCTCGGCAAGGGAGCGCT	717
CTTAGCGCAAGAGGCGTGACCCAGGCGTACCGCAGG	693
TGTTGTGGTTCCCGAGCTTCGTCCACGCCGGGTCTG	1140
GTCGCCGGGATCACCGCAAACGCTTGCTGCTTGCGC	1190
GCGGGCTATACGGTCCTCGGCTGCGGCGGGCACCAT	770
CAGTCTCCTTGCGCGTCACCTCTGTGACCGCTGTGC	1350
GCCGGGCACTGCCTGTGGAGGCCGCAGCGGGTGCGC	744
CGGCCTCTTCAGGTCACCTGGCCCGTCGCGGTCCCG	946
GCTGCCTCTGCCGCAAAGATGCCCCCTTCAGCTGGA	759
TGACTCACCTGCCTGTAGGTTGGTTTTCTGCATATC	663
CAGCTGAAGAAAGACCTGCCACCTCCACCACAAAGA	1020
ATTTTGAGGTTTAACTAGATATTATCTATTTACGGA	1010
GGTCTGAGCGGTGGAGGGAAGCAGACAGGCAGTGGG	724
TCGCTAGCCACAGCCATTTTTGTACCCGGGGAGCCC	944
AATACCCTGTGGTGGCCGCCGAAAGTGTGTCGGCGG	756

Sequence	RUNX1 binding intensity
AAGAGGCAATAAATACCAGAGTGAACCCACAAACCT	960
TCCTATATACTGCCGTTTGCCTCGCGGTTTCTTTCT	1720
TCCCCCACCGCACAGGCAAACCAGTTCCTCTTCTGC	1900
CCTCTCTGTGGTTCTGCCTGGAATACGCAAGGCAGG	1050
TGCGCTCGATTGTGGGCGGGGGCGCAAAGAGGCGCC	730
GCTCTGTGGTTAGCAGGTGCAACCCACGCGGAGGGG	1960
TAGATCTTCATGGACGTGCCTCTCCCCTGCGGCCTG	748
CTCCCCCGCACATAGCCCTGAACTGAGGCAGTCATC	947
GATCACAAAAACCACTCGTTTCCAGTCCACAGCTAG	883
GGGTCCTTCAGGGTTTTGTGTCGAATCTGCGGCGGC	721
TGGGAACTTGCTGTGGAGGAGTGCATTGTGGGACTT	789
CTGGGTTGTGGCACTGAGCCAGCAAGTCCCCTGGGT	697
AGCGCTGCGGGGAGGGGGAGCAAGGACTGGACGAGA	848
CAGGTTGTTGAGGAGGTGGAGAAACCGCAACCTCGT	3390
TGCCTTCTACTCCAGAACTCAGACCGCTGCCTTCTA	960
ACCTTGTGGCCTATTCTAACCCCAGCCCGGCAACCA	1160
AACAGCTTAGAAAGTAAGTGTGGCTTTGCTTAAGAC	738
GAAGCCGCACCGCCCCCCGCGCGCCGGCAAGCTCAC	851
TCTGTGCGGGCTGCAGCTCTCAGACTCAGGCTGAGG	701
CTACAGGCAGTTCGAACTGGGCGGAGCCCACCGCAG	733
GCTGGGGCAGCAAGCTTCTAGGCCACAGACAGGACG	710
TAAAATCGTCTCCCGACTCGCTCTGCGGCCCCACGC	815
GACTCGCTCTGCGGCCCCACGCAGGGAGCCTCCTTG	905
CTGTGGGTAACTGAAATCACAGCAAGTGGAACTGTA	780
CGTGACCACGGGGACCGAAAGTGGCGCCCGGCGCAA	677
ATTTTTCGTTCCTTCTCCCGTCCCCGCAGAGTGCAA	1810
CTGCTGGGCCCCGTCCTGTCAGCGGTTGCTCTTTAC	946

Sequence	RUNX1 binding intensity
CCGGGACCTGAAGAGGGAGCCGTGGTTGCTGGAACT	792
GAGCAAGCAGTGGTCAGGGAAGGCTTGCTGGAAGAG	873
TTGACCCGAACGTGGACAAAAGACCGCAAAGGACGC	1080
CCCTTGCCCGCAGGACGGCGGCCCGAAAGTGACGTA	1130
CCTTGCTTTCAGGGGACTGCCTGGGACAACCACGCA	714
GAAATCACCTCCTTTTGCAAAACCACAGGTGTTTTG	982
CACTGTGCTCTAACCACACTGACATGCGCCTGCCTC	1470
GACTAACGGCAAAGAAGGACGAGTACGCGGTCCCGG	679
GGAGGAGACCGCGGCGTTAGCGTGACCCGGGTGCGC	664
ACCTCATGCTGCTGTTCTTGTGTGTGGTTGAGCAGT	870
TGAAACCGCTGCCGCCGCCCTCGGGTTCAGCCGCGG	914
GGCCTCCGCGCCTGCAGAACTACAGCTCCCACAAGG	825
GAGCTGCTCCGACAGGGTGGTGTGTGGTCAACCTTG	808
TCCCCTGTGGGTTCCCCTCCCCAGCATGTTGCCACC	919
TCAATAAGACAGGGTGTTCTCCAACCGCATTAAGCT	828
TCCCCGGCAGCTCCCTCGCCCCGACCGCAGTGTTCC	1820
TATTACTTCAGGGAGCCCAGGGGGAACCGCGCCCCG	651
TGCTTACGGCGGGCGCTTGCTCCCCGCGGTCCGCAC	673
GGGTGGTTACTCGGCATGCTGTTGGGCTTACGGTGT	736
AGGTGGTTTGGCCTTTTTGTCCAGCAGCATGTGATA	752
GGGGTGGGGACACCGCGGAGGCCCGGGAATGGTGAC	775
TTTAAACCCACAAGCAGGCCCCTGCCCCTTCATGGA	1410
ACCAAGTTGCGGGCAGGATCTTTCTGTAGTTTGCCT	1430
GGAGGCTGCGGGGGCCGCACTCAGCCTGAATCCCTG	768
TAGGCTGGAAAGCACCACCGTCCTCCCGCAGGCCGC	760
CAAGTGTGTGGTCTCCTCTTATTCCCGGGTCTGTCA	903
